# In patent publication US20250064952A1 (ACCELERON PHARMA, published 2025):
# T1: activin A (UniProt P08476 311-426)
# T1 sequence (looked up): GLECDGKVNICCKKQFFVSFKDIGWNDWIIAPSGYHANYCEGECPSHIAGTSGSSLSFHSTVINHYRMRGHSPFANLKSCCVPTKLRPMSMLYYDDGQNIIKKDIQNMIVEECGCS
# T2: GDF11 (UniProt O95390 299-407)
# T2 sequence (looked up): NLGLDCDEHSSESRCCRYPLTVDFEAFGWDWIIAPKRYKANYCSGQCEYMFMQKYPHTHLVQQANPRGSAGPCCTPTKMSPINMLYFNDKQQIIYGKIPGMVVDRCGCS
# T3: BMP9 (UniProt Q9UK05 320-429)
# T3 sequence (looked up): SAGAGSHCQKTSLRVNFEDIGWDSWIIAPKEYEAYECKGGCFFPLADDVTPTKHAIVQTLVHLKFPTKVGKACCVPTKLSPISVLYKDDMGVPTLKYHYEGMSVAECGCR
# T4: BMP10 (UniProt O95393 317-424)
# T4 sequence (looked up): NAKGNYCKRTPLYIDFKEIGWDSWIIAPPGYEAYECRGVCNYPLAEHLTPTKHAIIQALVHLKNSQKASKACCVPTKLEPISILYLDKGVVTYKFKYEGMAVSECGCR
# T5: activin B (UniProt P09529 293-407)
# T5 sequence (looked up): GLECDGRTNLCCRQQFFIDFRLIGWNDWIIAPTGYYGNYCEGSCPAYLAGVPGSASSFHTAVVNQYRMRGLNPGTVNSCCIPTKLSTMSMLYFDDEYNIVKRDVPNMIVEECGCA
# T6: GDF8 (UniProt O14793 267-375)
# T6 sequence (looked up): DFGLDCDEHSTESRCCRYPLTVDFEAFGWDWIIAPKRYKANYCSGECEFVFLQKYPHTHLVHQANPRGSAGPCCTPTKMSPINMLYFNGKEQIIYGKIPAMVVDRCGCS
# B1: ActRIIB(20-134)-G1Fc (Fc fusion)
# chain: GRGEAETRECIYYNANWELERTNQSGLERCEGEQDKRLHCYASWRNSSGTIELVKKGCWLDDFNCYDRQECVATEENPQVYFCCCEGNFCNERFTHLPEAGGPEVTYEPPPTAPTG[sequence of human IgG1 Fc and a few adjoining residues omitted]
# B2: ActRIIB(F82I-N83R)-G1Fc (Fc fusion)
# chain: GRGEAETRECIYYNANWELERTNQSGLERCEGEQDKRLHCYASWRNSSGTIELVKKGCWLDDIRCYDRQECVATEENPQVYFCCCEGNFCNERFTHLPEAGGPEVTYEPPPTAPTG[sequence of human IgG1 Fc and a few adjoining residues omitted]
# B3: ActRIIB(F82T)-G1Fc (Fc fusion)
# chain: GRGEAETRECIYYNANWELERTNQSGLERCEGEQDKRLHCYASWRNSSGTIELVKKGCWLDDTNCYDRQECVATEENPQVYFCCCEGNFCNERFTHLPEAGGPEVTYEPPPTAPTG[sequence of human IgG1 Fc and a few adjoining residues omitted]
# B4: ActRIIB(F82T-N83R)-G1Fc (Fc fusion)
# chain: GRGEAETRECIYYNANWELERTNQSGLERCEGEQDKRLHCYASWRNSSGTIELVKKGCWLDDTRCYDRQECVATEENPQVYFCCCEGNFCNERFTHLPEAGGPEVTYEPPPTAPTG[sequence of human IgG1 Fc and a few adjoining residues omitted]
# B5: ActRIIB(L79H)-G1Fc (Fc fusion)
# chain: GRGEAETRECIYYNANWELERTNQSGLERCEGEQDKRLHCYASWRNSSGTIELVKKGCWHDDFNCYDRQECVATEENPQVYFCCCEGNFCNERFTHLPEAGGPEVTYEPPPTAPTG[sequence of human IgG1 Fc and a few adjoining residues omitted]
# B6: ActRIIB(L79H-F82I)-G1Fc (Fc fusion)
# chain: GRGEAETRECIYYNANWELERTNQSGLERCEGEQDKRLHCYASWRNSSGTIELVKKGCWHDDINCYDRQECVATEENPQVYFCCCEGNFCNERFTHLPEAGGPEVTYEPPPTAPTG[sequence of human IgG1 Fc and a few adjoining residues omitted]
# B7: ActRIIB(L79H-F82K)-G1Fc (Fc fusion)
# chain: GRGEAETRECIYYNANWELERTNQSGLERCEGEQDKRLHCYASWRNSSGTIELVKKGCWHDDKNCYDRQECVATEENPQVYFCCCEGNFCNERFTHLPEAGGPEVTYEPPPTAPTG[sequence of human IgG1 Fc and a few adjoining residues omitted]
# Target: T1, activin A
# Test: cell-based or functional assay
row,Binder,"IC50, A204 (CAGA)12 luciferase reporter"
1,B1,8 ng/mL

# Target: T2, GDF11
# Test: cell-based or functional assay
row,Binder,"IC50, A204 (CAGA)12 luciferase reporter"
1,B1,9 ng/mL

# Target: T3, BMP9
# Test: cell-based or functional assay
row,Binder,"IC50, A204 (CAGA)12 luciferase reporter"
1,B1,31 ng/mL

# Target: T1, activin A
# Test: cell-based or functional assay
# Remark: another data set of the same source
row,Binder,"IC50, A204 (CAGA)12 luciferase reporter"
1,B1,0.05 nM
2,B2,1.67 nM
3,B3,0.1 nM
4,B4,1.52 nM
5,B5,> 10 nM
6,B6,> 100 nM

# Target: T2, GDF11
# Test: cell-based or functional assay
# Remark: another data set of the same source
row,Binder,"IC50, A204 (CAGA)12 luciferase reporter"
1,B1,0.12 nM
2,B2,9.95 nM
3,B3,0.27 nM
4,B4,17.9 nM
5,B5,0.24 nM
6,B6,0.36 nM
7,B7,> 100 nM

# Target: T4, BMP10
# Test: cell-based or functional assay
row,Binder,"IC50, A204 (CAGA)12 luciferase reporter"
1,B1,0.036 nM
2,B2,13.2 nM
3,B3,0.07 nM
4,B4,12.6 nM
5,B5,> 100 nM
6,B6,> 100 nM
7,B7,> 100 nM

# Target: T5, activin B
# Test: cell-based or functional assay
row,Binder,"IC50, A204 (CAGA)12 luciferase reporter"
1,B1,0.067 nM
2,B2,0.08 nM
3,B3,0.09 nM
4,B4,0.11 nM
5,B5,0.07 nM
6,B6,0.15 nM
7,B7,0.1 nM

# Target: T3, BMP9
# Test: cell-based or functional assay
# Remark: another data set of the same source
row,Binder,"IC50, A204 (CAGA)12 luciferase reporter"
1,B1,1.82 nM

# Target: T6, GDF8
# Test: cell-based or functional assay
row,Binder,"IC50, A204 (CAGA)12 luciferase reporter"
1,B1,0.95 nM
2,B3,2.17 nM
3,B5,5.76 nM
4,B6,> 10 nM
